Among the data in PMC5388433 are binding values, retold here.

Amino acid sequences for entries named in this document (tags omitted).
UniProt P45973: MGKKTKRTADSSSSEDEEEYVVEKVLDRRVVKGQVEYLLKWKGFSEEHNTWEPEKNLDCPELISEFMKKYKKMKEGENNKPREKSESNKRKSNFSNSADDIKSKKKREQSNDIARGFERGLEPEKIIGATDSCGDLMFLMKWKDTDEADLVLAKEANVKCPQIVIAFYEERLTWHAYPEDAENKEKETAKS

The target of assay [1] is T1, KDM2A_(543-811) V801A/L803A (human) (UniProt Q9Y2K7).
T1 sequence: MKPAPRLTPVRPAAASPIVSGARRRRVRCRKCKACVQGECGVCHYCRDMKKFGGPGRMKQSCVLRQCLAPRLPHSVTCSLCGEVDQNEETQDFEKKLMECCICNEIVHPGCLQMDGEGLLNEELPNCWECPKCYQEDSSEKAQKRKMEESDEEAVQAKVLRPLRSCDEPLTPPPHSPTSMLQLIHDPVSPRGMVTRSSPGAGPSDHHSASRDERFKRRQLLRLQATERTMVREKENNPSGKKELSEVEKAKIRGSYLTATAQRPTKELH
The assay is described as follows: SEC; 50 μg of each protein mixed in 50 μl, 15 min at 4°C; Superdex 200 Increase 3.2/300; 50 mM Tris pH7.5, 100 mM NaCl, 5 mM β-mercaptoethanol; fractions on Coomassie-stained gels; both purified. In general terms: In gel filtration, larger molecules generally elute earlier.

Assay [2] concerns the target T2, KDM2A_(543-811) nucleosome recognition module (human) (UniProt Q9Y2K7).
T2 sequence: T1 sequence with A259V, A261L
The description is as above.

The target in assay [3] is T1, KDM2A_(543-811) V801A/L803A (human). The assay is described as follows: pull-down; nucleosomes (2.5 μg octamer, biotinylated 601-DNA) immobilised on streptavidin beads, incubated with 2.5 μg WT or mutant HP1α and/or 2.5 μg KDM2A_(543-811) (WT or V801A/L803A) in 1 ml binding buffer; immunoblot; both purified. On the technique in general: Immunoblotting shows a protein as a band on a membrane.

For assay [4], the target named is T2, KDM2A_(543-811) nucleosome recognition module (human). Described as above.
Assay [5] addresses T3, purified full length FLAG-GFP-tagged KDM2A (WT) (human) (UniProt Q9Y2K7).
T3 sequence: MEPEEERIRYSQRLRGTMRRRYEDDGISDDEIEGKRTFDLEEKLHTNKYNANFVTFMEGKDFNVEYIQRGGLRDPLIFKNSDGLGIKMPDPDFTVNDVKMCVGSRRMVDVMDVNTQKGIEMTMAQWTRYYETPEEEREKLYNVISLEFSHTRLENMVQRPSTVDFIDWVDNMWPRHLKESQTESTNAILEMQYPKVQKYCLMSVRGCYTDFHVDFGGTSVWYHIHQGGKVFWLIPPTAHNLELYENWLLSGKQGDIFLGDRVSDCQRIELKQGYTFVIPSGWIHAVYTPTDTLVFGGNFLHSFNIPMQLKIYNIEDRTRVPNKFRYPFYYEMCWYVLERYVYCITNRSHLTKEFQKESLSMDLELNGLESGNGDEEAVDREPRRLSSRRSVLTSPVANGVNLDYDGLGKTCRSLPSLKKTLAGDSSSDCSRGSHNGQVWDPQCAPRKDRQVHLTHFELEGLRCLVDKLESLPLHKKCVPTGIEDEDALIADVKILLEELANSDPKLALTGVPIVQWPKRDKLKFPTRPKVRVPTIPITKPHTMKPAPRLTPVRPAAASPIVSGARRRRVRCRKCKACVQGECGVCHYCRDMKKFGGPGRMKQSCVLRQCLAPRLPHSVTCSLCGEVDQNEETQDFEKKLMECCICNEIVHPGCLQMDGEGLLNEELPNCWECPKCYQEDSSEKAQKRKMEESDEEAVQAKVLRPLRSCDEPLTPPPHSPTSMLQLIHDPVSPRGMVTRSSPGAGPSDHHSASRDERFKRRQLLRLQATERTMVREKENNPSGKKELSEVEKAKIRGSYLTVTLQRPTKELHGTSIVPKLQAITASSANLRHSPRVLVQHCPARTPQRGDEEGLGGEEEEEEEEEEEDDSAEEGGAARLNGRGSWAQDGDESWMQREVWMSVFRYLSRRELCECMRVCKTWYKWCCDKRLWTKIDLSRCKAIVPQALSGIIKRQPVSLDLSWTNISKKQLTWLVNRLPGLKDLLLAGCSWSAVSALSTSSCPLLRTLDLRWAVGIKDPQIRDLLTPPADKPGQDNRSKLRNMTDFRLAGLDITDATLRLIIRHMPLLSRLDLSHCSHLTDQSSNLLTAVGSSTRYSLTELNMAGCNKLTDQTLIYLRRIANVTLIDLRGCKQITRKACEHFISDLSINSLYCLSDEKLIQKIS
Briefly: pull-down; nucleosomes (2.5 μg octamer, unmethylated biotinylated 601-DNA) immobilised on streptavidin beads, incubated with 2 μg purified full length FLAG-GFP-KDM2A (WT or mutant) and 2 μg HP1α in 1 ml binding buffer (20 mM HEPES pH7.9, 150 mM NaCl, 0.1% NP40); immunoblot; both purified.

Assay [6] concerns the target T4, FLAG-GFP-tagged KDM2A WT (293T) (human) (UniProt Q9Y2K7).
T4 sequence: T3 sequence
The assay is described as follows: pull-down; FLAG-GFP-KDM2A variants captured from 293T whole cell extracts on anti-FLAG M2 agarose beads, washed, then rotated with recombinant purified HP1α in 200 μl binding buffer (20 mM HEPES pH 7.9, 150 mM NaCl, 0.1% NP40) for 2 h at 4°C; quantitative immunoblot; only the binder purified.

Residue numbers refer to the chain shown, from its start. These are yes or no findings as the source states them, for the method shown. For part of these data: In cells and extracts the contact can be indirect. Some entries that bind do so weakly or less than the wild type. For part of these data: Sequences can lack the tags named with a protein.

Take “recombinant purified HP1α (WT) (from UniProt P45973 1-191)”: the binding entry in assay [1] is “no binding (tested: 50 μg of each protein in 50 μl)”; in assay [2] it was “binds”; in assay [3], “no binding”; in assay [4], “binds”; in assay [5], “binds”; in assay [6], “binds”.
